Measured values reported in PMC10726135.
Some of the results follow. At the low end of the ranking the order means little. The protein was read in a cell extract, so binding may be indirect.

Each sequence was assayed against T1, HNF4alpha2 (COS-7 nuclear extract) (UniProt P41235) (assay: protein-binding microarray). Details: COS-7 nuclear extract on double-stranded Agilent 4x180k PBM; binding buffer, salt, pH and temperature not given; high values mean tight binding; double strand, one strand shown; sequences stand for … in …GCCTAGGGAGATTAGAGTATCGGTCGA.
T1 sequence: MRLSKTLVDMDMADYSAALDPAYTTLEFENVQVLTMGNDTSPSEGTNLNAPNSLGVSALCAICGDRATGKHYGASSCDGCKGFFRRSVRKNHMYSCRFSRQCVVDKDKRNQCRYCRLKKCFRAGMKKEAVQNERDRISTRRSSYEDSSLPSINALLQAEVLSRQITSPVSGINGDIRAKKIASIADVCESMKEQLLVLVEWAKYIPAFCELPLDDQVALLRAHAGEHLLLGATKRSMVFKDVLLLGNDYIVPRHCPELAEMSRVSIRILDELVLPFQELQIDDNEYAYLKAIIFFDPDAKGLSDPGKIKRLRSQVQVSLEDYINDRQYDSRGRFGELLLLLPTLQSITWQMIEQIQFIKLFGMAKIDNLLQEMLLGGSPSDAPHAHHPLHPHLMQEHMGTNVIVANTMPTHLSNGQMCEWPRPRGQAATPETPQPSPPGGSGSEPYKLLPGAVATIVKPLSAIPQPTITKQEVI

Row | Sequence | binding signal (log2 normalized intensity)
1 | CCTGTGGCCACAGAGCGCCTAACTATTTTG | -1.12
2 | GATCACCTGGTGGCCATCAAGCAGATCATC | -1.11
3 | GAACTTTGATCAGCATTCAAATGAGGGCAG | 3.19
4 | TTTCTTTCTTTTCCCAAACCACGTTTCTGT | 1.61
5 | CCTGGGAATGCCTAGGGGGAAGCCCCTGCT | -1.19
6 | GCCCTAGGAATCCTGACCAGGGGCCAGCAA | -1.06
7 | GTCCCACCTGAGGCCAAGCAGCTGTGATGA | -0.762
8 | GCTAATCCTACTTTATCTAAGTAAACTAGT | -0.824
9 | CCGCACAGTGCAAACACACAATATTGACAT | -1.04
10 | GAGGCTTATTCCGTACAAGGATTCATTTCC | -0.894
11 | GAGATCAGAGGAGGCACTTGTCTCACATCT | -0.934
12 | AGGCATTTCTGGAATTCTCTTCCCAACAGG | -1.14
13 | CGGCTGAGCGGCCTTCGCACCTGCCTGTCT | -1.18
14 | TCCTTTTTGGCCAGCCCCGGGAATTCTGGG | -1.19
15 | TGGAAGAAGCGGTTCTGCAGGTTCATGGGA | 0.86
16 | ACCACTCTTTCAGGGTGGGAAAGGAATGTA | -0.0895
17 | GGCTAATTACATCCAGAGTGGGACAAAGTT | 0.11
18 | GGGTCATTAATTCCCAGGAATTGGCCTGTG | -0.031
19 | GAATGCCTGGGTCAAATTGGTGCTTTCATC | 0.658
20 | TTGTATGGTTTTGTGCTAGAAAGAATGAGA | 0.943
21 | CCCCTTTTAATACAAGTATTATCTTCCATT | 0.0533
22 | CCACAAAGTCTTAGCTCATTTCAGCCTTAA | -0.629
23 | ATGCCGGCGTGACCCCCACTGCCTGCCTGC | 3.81
24 | GCCAAAGTTCAACCATACACACATTCCAAT | 0.406
25 | AACCTTTGCCCCAGCTGTCACCCAGCCAGA | 3.68

Row | Sequence | binding signal (log2 normalized intensity)
26 | AAAAGATAAGGACACAAGTGTCAGAGCAGG | -1.06
27 | TGAGTCCCCCGGCTCTACGCAAGTGGTACC | 2.76
28 | TGACAAACATGTATCAGTGATAGACTAACT | -0.909
29 | TAGAGCTGCTTACATTTTGCTCTGTTGTGT | 1.27
30 | CGCGTCCTCGGCTCTGCGCAGGCGCAGTCC | -1.1
31 | GTGTTGAGAATCCCTCCCCTGTGCAAACTT | 3.12
32 | CTTCTTTGAAAGTTTGGTGGACTTTGGCCG | 9.62
33 | TTAAGTCAAAATATAAGGTCCAACTGACAT | 1.26
34 | CTTTGAGCCAGAATCTGTCAGCTGCCTTTC | -1.05
35 | TACTTATGTCTCCAGAAACCAACCTTTGAT | 3.32
36 | CTAAGATTTATAAAGGGCAGCAAGTATTCA | 0.696
37 | GCCTGGACAGATAAGAAGGGGTCAGACCAG | 1.84
38 | GGCTCCTATTTCTGGCCCTGCAATTTGATT | -0.239
39 | CCTGGATCTTCCAGGCCTCCAGCTCTTTTG | -1.15
40 | AGAATGTGGTTCTTTTCATTAAATATTTAA | 1.45
41 | CTCAGAGGACCTGACATTCTCCACTTGGTG | -1.13
42 | GACCTTTGTTTTATTGTCATGCTGATATTC | 2.93
43 | CATCGCAGAAAGCTCTTTGCACAGTACTGA | -1.06
44 | GGGTTCAAGCTTGATCCAGGATCCTTCTTG | -0.177
45 | GCAGGCTCAGAACTACCAATGTTTACCAGC | -1.15
46 | TCCAACCCACAGGGGTAGAAGCTGAGCAGC | -1.1
47 | TGCTTGTGTTGGAGCATTAGTTGACCATTG | 2.03
48 | CAAACTATAGATTTGTGATGAGAATAAATT | -0.065
49 | CTAGCAAAAATCCTGCCAAACCAGTTCAAC | -1.15
50 | TTACTCACCTGATTCAATGTCTGGAAGTTC | 1.3

Row | Sequence | binding signal (log2 normalized intensity)
51 | CTTAGGGAGGGTGAAGGTCACAATTTCCAG | 2.74
52 | ACTGAGGCTCAATGAGGTCAATAGTCCAGA | 4.35
53 | CTTATCAGCAGCTGGGGTGACTGATTGGAG | 1.01
54 | ACACAGACAAAGACAGAGAGGCTTCCCTTT | -1.1
55 | TGAAGGAACAGGTTCAGATAAGACAAGCTC | -0.993
56 | GGAAAGCTGAGGCCCAGGAAGCTCCAGCGG | -0.901
57 | GGCTGGGGCCCTCTTCCAGCTGAGACAAGG | -1.1
58 | GTATATCCTGACACAGGAAGGGGGATGTCT | -0.918
59 | CTTATCATGCTGTCTCTGAAAGCAAACAAT | -0.84
60 | AGGAGCAGGAGCAGAAGCAGGCCTCGGGCC | -1.07
61 | GCCAAGGGCAGTGTTTGCCCAGCTTGAATC | -1.08
62 | CGGGCACTGATAACGCCCGCCTAACCTTGA | -1.19
63 | CAGCTTATCTGTCCATCCCTCACTCCTGTC | -0.54
64 | GGGAATGTGGGTCCACATTCCTGATGCTAG | 0.438
65 | TGTTAATGGCACTTCGTTTCAAAGTCCAGT | 4.36
66 | GACACCCGCTGGCGCCATCCAAAGGCCCGA | -1.01
67 | GGAATGGGTATAACCTTCTTCTATGCCCTC | 2.71
68 | CAGTAAGTTTACTTCATCTAAGTGGGTCTA | 1.24
69 | GGTGGGTGGGAAGGGATCAGAAATTGATTT | -0.939
70 | GCTGACCCTCTCCCCACCATTAACCCTACA | 4.08
71 | TAACATCTAAGATTGGCCCTGATAATCAAT | -0.652
72 | GGGTCATGGAGCTGGAGGGCAAAGGTCAGA | 7.97
73 | AGTGCGATGATCATGGCTCACTGCACCTTG | 0.629
74 | AAGTTTCAGGCTATGAATGAAGTCTTTTCC | -0.256
75 | AGAGACAGTGGAATCTACAGAATTCTCATG | -1.1

Row | Sequence | binding signal (log2 normalized intensity)
76 | GGGATTTTCTCAGCTCTCCTCTGCCTCCAG | -0.806
77 | AGAAAAAAATGAGTCACAATATCAGTCTTT | -0.0465
78 | CAACTCTAGGAGCATGTCAAAAGCTAAATA | -1.17
79 | CCTTCCCCTTTTTCTGTAAAGCTTTATTTT | 1.33
80 | CACCTTTACCCCCACTCTCCGCTGGCCTGT | 4.08
81 | CAGGGGAGAGAGGCAAGATCCGAAGTCTAG | -1.09
82 | GTTTGATCACAAGACATGAAGATGCAGAAC | -0.962
83 | AGCACACCTTTTTTTCATGCAAATTTCCGT | 0.118
84 | TCTTTGCTCTCCTCCTAATCACTGCCCTTT | 3.94
85 | TCCTAGAGAAAGGGGCTTAGGGAGGGTGAA | -1.23
86 | CATTTCAAGGCTGGCTGAGTTCCCTTACAG | -1.14
87 | ATCTTTTTACTGAGACTTAACAGTCACTCA | -1.08
88 | TGACTTCTTTCGCTGTAGAAAGTGGTTTCA | 0.584
89 | AACCAAAGGAATTTAGCCTTTAACCTGCAG | 1.55
90 | CGCTGCGGGTCACGTGCCGCTGCGGGTCAC | 1.94
91 | GGTGTGGTTAATGATTATGCCTCTGTGACC | 1.94
92 | TCTTTCAAGATAACAAGGCAAACTTTATCA | -0.854
93 | AAGGGAGCAAAGTGCATTTGATAAGGGTAT | 2.83
94 | AGCGGGCTTAACTAGGAGCCTGCACGCCTG | -1.07
95 | GGTAGGCAGCCTCTGAGATGGACTCCAGTG | 2.01
96 | TTGCCTAAGACATGCTCGCAGCTGCATAGA | -1.05
97 | TGAAATTCTGGACTTTCAACAGAGGGCCTC | 2.79
98 | CTCACCTCTGGCCAGAGAGATGTCAGCCCA | 0.201
99 | CGGATGGCCGTGGGTGGAAGGAAAAGAGGA | -1.21
100 | TGTACTGTAAACCTAGGTAGTGGACTCTAA | 3.3

Row | Sequence | binding signal (log2 normalized intensity)
101 | ATCAAAGGTAGATGAATCCACAAAGATAAG | -0.84
102 | AATGACATTCAGCAACTGGGTTCAGTTACG | 0.79
103 | TCATTTACAGAATTTCTCAGATGCCAGCTA | -1.16
104 | CTTTTGCCCCCAGGCTGCAAACCTGTACAG | 3.51
105 | ATTACTGCACCCCCTTCCCACCTGCTGTCC | 4.84
106 | GTTGATCTGGATGCCTCACCTGGCAAGGCA | -1.07
107 | AAACTGGGCAAAGGTCAGGATCTCAGCCGC | 4.52
108 | GAAGATAGCTTTAAAGACCAAAGATCACAG | 1.68
109 | GGGCGTGTGTTAGACTTTGGACCTGGCCTG | 7.25
110 | GATCACCCAGGTCCAAGTCACTATCACCTC | -0.903
111 | GGTTAAAAGGACAACCTTCGGCCGGGCACG | -1.07
112 | GGGATTATGGCCGGCCCCTGGAATGCTGAG | -0.859
113 | TGGACTATGTTTACACAGCCTTGTAGCAAG | -0.815
114 | AAACATCTAATGAACTGATTAGAACATTAA | -1.12
115 | GGGCCCAGGGTTCTCTGTGACCTTTGGAAG | 8.2
116 | CATAAAAGTTCTCATGCTAAAAGTTGAATT | 0.325
117 | TCAAAGAATTTAACACCAGATAAACAGAAG | -1.13
118 | ATCTGGAGGGGGCAGGACAGCAGGAGTGGG | -1.26
119 | CCCAGTTCATAGGTCAATTCTTTGAAGTCT | 3.28
120 | AAGATCATTCCAGGAATGTTCAAGAAGTTC | 0.138
121 | GCCTGGCAAGACTTCTTCAGGGAGACTTCC | -1.18
122 | GAGTGGGAGGCTGGGGCCTCCTGGCTGGGC | -0.741
123 | TAACTGTATAACCTGGAACTGAAAGAGACC | -1.1
124 | ACAGGGTGATCAGAGATCTAGGTGAGGGAT | -1.2
125 | GACCCTGGGCTTAGTTGCTCGCTCCTTAGG | -1.16

Row | Sequence | binding signal (log2 normalized intensity)
126 | TCTGCTTCCTGCTACAGAGCTCAGATTTCA | -1.15
127 | TTGGACTCTGCCCTTGGCCTACTTAGTCCA | 3.59
128 | GAGGCCCTCTGTTGCTTCAAAGGGCAAAAG | 1.52
129 | TTGCTTTTCACAGTCGATCTTTGACCGCTG | 5.44
130 | ATCTAAGATTCCCCCTACCCTCAATATCTG | 4.35
131 | AGATACTCACCAGTGGGCCCAGAGCACAAC | -1
132 | CTGTGACCATCTCCTTTTGTGAGAGGTCAA | 2.88
133 | TACAGGTGAATTTCAGTGCCCTTTGAGATT | 3.3
134 | TTGCCATTGTACAGGTTCCCTCATGATTTA | 0.435
135 | ATACGATAATGTCAAACATCTTATATCAAC | 0.675
136 | TTGCCTTGTTTGTTTTGAGGGTTAAAGGAG | 2.02
137 | TGCCCTGGATCTTGAAGCAGAAAACCACTG | -1.15
138 | AAGCATACAGATTACATCTCCAGCTTATCT | -1.07
139 | CATTCTGCTGCTCTTTAATCCTAATAATCC | -0.264
140 | AATCCAGACACTTTGGCTCCAGAGTCCACA | 2.2
141 | CTTGAAAGTAAGCAGACACTGAAAGATGGT | -0.188
142 | GTTGCAAATTATTACTCCCACCGTGTGTGC | 1.03
143 | GAAGAATGGAATTGCCATTGACTGAGATAG | -0.94
144 | CTCGCTCGCCCGAGCGCTGCTTCTCGTCCC | -1.11
145 | GGGACCAAGGGTCAGTTCATTAAAAAAAAA | 1.57
